Assay results reported in PubChem BioAssay AID1347073 (National Center for Advancing Translational Sciences (NCATS), 2019).
The campaign covered roughly 45,000 compounds. About 200 (0.44%) were called active. Roughly 7% stayed inconclusive and do not appear here. The call rests on the fitted dose curve; in most records, active means well fitted activation curve with a large enough effect; inconclusive means small, poorly fitted or top-dose-only effect; inactive means no such curve, though single readings can be large or run the other way. The list shows a part of the results.

Assay: qHTS of TDP-43 Inhibitors: NCGC Sytravon Library Screen; further: 0% is about no effect; nearly all actives have a fitted effect of over 55% in size
Conditions: yeast TDP-43 toxicity rescue, BacTiter-Glo growth, 24 h; series mostly up to 46.1 µM; growth rescue (activation): at the top concentration
Summary of the method: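 TDP-43-expressing yeast, pregrown in raffinose, seeded at OD600 0.02 in galactose medium with compound for 24 hr at 30 deg C. Growth read by BacTiter-Glo luminescence, so rescue of toxicity appears as activation.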

Row | SMILES | growth rescue (activation)
1 | Cc1cc(C)n2nc(C(=O)OCC(=O)c3cc(C)n(CC4CCCO4)c3C)nc2n1 (configuration not stated) | inactive: 1.94%
2 | CCn1cc(C(=O)N[C@@H](C)C(=O)NCCCO)c(=O)c2cc3c(cc21)OCO3 | inactive: 5.99%
3 | Brc1ccccc1/C=N/Nc1nc2ccccc2o1 | inactive: -6.7%
4 | COc1cc(OC)c(NC(=O)C(=O)CC(=O)c2ccc(C)cc2C)cc1Cl | inactive: -1.18%
5 | O=C(NCC(c1ccc(F)cc1)N1CCOCC1)c1c(F)cccc1F (configuration not stated) | inactive: 1.05%
6 | CC1=C(C(=O)OC(C)C)C(c2cccs2)NC(=S)N1 (configuration not stated) | inactive: -28.9%
7 | CC(=O)N1c2ccc([N+](=O)[O-])cc2NC(=O)CC1C (configuration not stated) | inactive: 12.9%
8 | CC(=O)N1CCc2ccccc2C1CC(=O)O (configuration not stated) | inactive: -7.07%
9 | COc1ccc(C(=O)OCC(=O)c2ccc(F)cc2)cc1OC | inactive: 11.9%
10 | Cc1onc(-c2ccccc2Cl)c1C(=O)Nc1ccc(N2CCOCC2)cc1 | inactive: 5.37%
11 | O=C(CN1CCN(Cc2ccccc2)CC1)N/N=C/C=C/c1ccccc1[N+](=O)[O-] | inactive: 11.9%
12 | O=C(Cn1cnnn1)NCc1ccccc1 | inactive: 0.791%
13 | Cc1c(C(=O)N/N=C/c2cccnc2)nnn1-c1nonc1N | inactive: 3.47%
14 | Cc1ccc(S(=O)(=O)N2CCC[C@H]2C(=O)Oc2ccccc2)cc1 | inactive: -5.95%
15 | O=C(NCCN1CCOC1=O)C1CCC(=O)N(CCc2ccc(Cl)cc2)C1 (configuration not stated) | inactive: -8.67%
16 | CCC(C)Nc1nc2c(c(=O)[nH]c(=O)n2C)n1CCCc1ccccc1 (configuration not stated) | inactive: 1.48%
17 | O=C(CCc1c[nH]c2ccccc12)NCc1cccc(Cl)c1 | inactive: -9.62%
18 | O=C1CSc2ccc(C(=O)O)cc2N1 | inactive: -7%
19 | COc1ccc(NC(=O)Cn2c(=O)n(-c3cccc(C(F)(F)F)c3)c(=O)c3sccc32)cc1 | inactive: 12.3%
20 | O=C(CCS(=O)(=O)c1ccc(Cl)cc1)Nc1ccc(F)cc1 | inactive: -0.889%
21 | CC(C)N1C(=O)C(=O)N(CC(=O)N2c3ccccc3NC(=O)CC2C)C1=O (configuration not stated) | inactive: 8.41%
22 | CCN1CCN(C(=O)CSc2nc(N)cc(N)n2)CC1 | inactive: -12.7%

Row | SMILES | growth rescue (activation)
23 | C/C(=C\c1ccccc1)CN1CCC(C(=O)N2CCCCC2)CC1 | inactive: -1.97%
24 | Cc1cc(C)c(S(=O)(=O)/N=C2/C=C(SCC(=O)O)C(=O)c3ccccc32)cc1C | inactive: 8.67%
25 | CC(=O)Nc1ccc(C(=O)CSc2nccc(=O)[nH]2)cc1 | inactive: 3.31%
26 | COc1cc(NC(=O)Cc2cccs2)c(C(=O)O)cc1OC | inactive: -9.97%
27 | O=C(Oc1ccc(Cl)c2cccnc12)c1cccc([N+](=O)[O-])c1 | inactive: 22.3%
28 | Cc1nc2nc(CSc3nnc(C)s3)cc(=O)n2[nH]1 | inactive: 4.9%
29 | CCc1nc2c(OCc3ccc(C(F)(F)F)cc3)cccn2c1N(C=O)Cc1ccc(OC)cc1 | inactive: 0.959%
30 | CCOC(=O)/C(N=Nc1c(C)n(C)n(-c2ccccc2)c1=O)=C(\C)O | inactive: 10.2%
31 | Cc1ccc(N=CC2=C(O)CC(c3cccc(Cl)c3)CC2=O)cc1 (configuration not stated) | inactive: 5.87%
32 | COc1ccc(NC(=O)CSc2nc(C)cs2)cc1 | inactive: 15.3%
33 | CC(C)c1onc(C(=O)N2CCOCC2)c1[N+](=O)[O-] | inactive: 3.82%
34 | Nc1n[nH]c(C(F)(F)F)c1-c1ccccc1 | inactive: 3.03%
35 | O=C(O)c1ccc(S(=O)(=O)NCC2CCCCC2)cc1 | inactive: -4.66%
36 | COc1ccc(N(CC(=O)NCc2ccc(Cl)cc2)S(=O)(=O)c2ccccc2[N+](=O)[O-])c(OC)c1 | inactive: -3.36%
37 | COCc1ccc(C(=O)N2CCCC(Nc3ccc(C(C)C)cc3)C2)s1 (configuration not stated) | inactive: 35.8%
38 | O=C([C@H](Cc1ccccc1)N1C(=O)c2ccccc2C1=O)N1CCOCC1 | inactive: 21.5%
39 | O=C(CC1NCCc2ccccc21)Nc1ccc(Cl)cc1 (configuration not stated) | inactive: -0.565%
40 | O=C(CNc1cccc(C(F)(F)F)c1)N/N=C/c1cn(-c2ccccc2)nc1-c1ccccc1 | inactive: -17.4%
41 | O=C(CN1CSCC1=O)N1CCN(S(=O)(=O)c2cc(C(F)(F)F)ccc2Cl)CC1 | inactive: 24.8%
42 | CCc1nc2c(OCCc3cccc(OC)c3)cccn2c1N(C)C(=O)c1cccs1 | inactive: 9.62%
43 | CC(=O)c1cccc(-c2ccnc3c2CC(C(=O)NCC2CC2)O3)c1 (configuration not stated) | inactive: 7.31%
44 | CCCC(=O)Nc1nc(C)c(C(C)=O)s1 | inactive: 10.5%

Row | SMILES | growth rescue (activation)
45 | Cc1ccc(CNC(=O)c2ccc(N(C)S(=O)(=O)c3ccccc3)cc2)cc1 | inactive: 18.4%
46 | O=C(COC(=O)[C@@H]1CCCN1S(=O)(=O)c1ccc(Cl)cc1)NCC(F)(F)F | inactive: 3%
47 | CN(CC(=O)Nc1ccccc1C(=O)NC1CC1)Cc1ccccc1F | inactive: 5.18%
48 | Cn1c(=O)c(=O)n(C)c2cc(S(=O)(=O)NCCOc3ccccc3Cl)ccc21 | inactive: 8.94%
49 | CCNC(=O)c1ccccc1SCc1ccccc1 | inactive: 15.2%
50 | COc1ccccc1C(=O)C1CCCN(Cc2cccc3nccnc23)C1 (configuration not stated) | inactive: 3.58%
51 | O=C(NC1CCCC1)c1cc(-c2ccc(Cl)cc2)on1 | inactive: 27.5%
52 | O=C(NN1C(=O)/C(=C/C=C/c2ccco2)SC1=S)c1ccccc1O | inactive: -12.9%
53 | Cc1ccc(NC(=O)COC(=O)Cn2cnc3ccccc32)c(C)c1 | inactive: 18.9%
54 | CCCCN(CC)Cc1ccc(CNC(=S)Nc2c(C)cc(C)cc2C)o1 | inactive: 7.85%
55 | CC1CCc2c(C(=O)Nc3ccc(OC(F)(F)F)cc3)csc2C1 (configuration not stated) | inactive: 13.7%
56 | CN(C(=O)COC(=O)c1cc(Br)c(Br)s1)C1CCS(=O)(=O)C1 (configuration not stated) | inactive: -21.2%
57 | O=C(N/N=C/c1cn(-c2cccs2)nc1-c1ccccc1)c1ccccc1Br | inactive: 6.7%
58 | CCN(Cc1ccccc1)C(=O)c1nn(-c2ccc(OC)cc2)c(=O)c2c1c1ccccc1n2C | inactive: 12.6%
59 | CC(=O)N1CCN(CC(=O)Nc2c(Cl)ccc(C)c2Cl)CC1 | inactive: -4.41%
60 | COc1cccc(CN2CCCC(C(=O)Nc3ccc(-c4cscn4)cc3)C2)c1 (configuration not stated) | inactive: -5.49%
61 | CCC1(C)Cc2ccccc2C(=S)N1 (configuration not stated) | inactive: -14.5%
62 | O=C(CN1C(=O)NC2(CCc3ccccc32)C1=O)NCc1cccc(C(F)(F)F)c1 (configuration not stated) | inactive: 9.62%
63 | C[n+]1c(/C=C/c2ccc3c(c2)OCO3)ccc2ccccc21 | inactive: -4.83%
64 | COc1ccc(C(CNC(=O)CN(C)S(=O)(=O)c2ccc(C)cc2)N2CCCC2)cc1 (configuration not stated) | inactive: -2.09%
65 | COC(=O)c1ccccc1N1CCS(=O)(=O)CC1 | inactive: -5.82%
66 | COc1ccc(-c2cc(-c3cc(C)ccc3O)[nH]n2)cc1 | inactive: 7.89%

Row | SMILES | growth rescue (activation)
67 | Cc1cc(C)n(-c2ccc(C(=O)OCC(=O)Nc3cc(Cl)ccc3[N+](=O)[O-])cc2)n1 | inactive: -13.4%
68 | CCc1nc2ccc(C(=O)NCCc3c[nH]c4ccccc34)cn2c1N(C)Cc1ccc(N(C)C)cc1 | inactive: 6.12%
69 | Cc1ccc(-n2nc(C(=O)NN)c(C)c(C#N)c2=O)cc1Cl | inactive: -8.17%
70 | O=C(Nc1nc(-c2ccccc2)cs1)c1ccccc1NS(=O)(=O)c1ccc(F)cc1 | inactive: -89.2%
71 | CN1C(=S)N2CCCN2C1c1ccccc1 (configuration not stated) | inactive: 9.4%
72 | O=C(Nc1ccc(S(=O)(=O)N2CCCCC2)cc1)c1ccccc1F | inactive: 7.4%
73 | COc1ccccc1C(=O)NCC(=O)OCC(=O)Nc1cccc(S(=O)(=O)N(C)C)c1 | inactive: 14.6%
74 | COc1cc(/C=N/N=C2/NC(=O)C(Cc3ccccc3)S2)ccc1O (configuration not stated) | inactive: 13.5%
75 | Cc1cccc(C(=O)NCC(=O)OCC(=O)c2ccc(C)s2)c1 | inactive: -0.729%
76 | CN(C(=O)c1ccc(OC2CCN(CCc3ccccc3)CC2)cc1)C1CCOC1 (configuration not stated) | inactive: 12.5%
77 | CC(=O)NCCNC(=O)CNC(=O)c1ccc(Cl)cc1 | inactive: -16.9%
78 | CN1C[C@@H](CO)O[C@@H](n2cnc3c(N4CCN(CCO)CC4)ncnc32)C1 | inactive: 2.23%
79 | COc1ccc(C2C(C#N)=C(N)OC3=C2C(=O)CCC3)cc1OC (configuration not stated) | inactive: -13.1%
80 | CC(/C=N/NC(=O)c1nnn(-c2nonc2N)c1CN(C)C)=C\c1ccco1 | inactive: -15.3%
81 | CC1(C(=O)O)CCCN(C(=O)c2ccc(F)cc2Cl)C1 (configuration not stated) | inactive: 16.7%
82 | CN1C(=O)C(CC(=O)Nc2ccccc2F)N(NC(=O)c2ccc(Br)cc2)C1=S (configuration not stated) | inactive: 8.27%
83 | CCN(CC)S(=O)(=O)c1ccc2c(c1)nc(CCC(=O)Nc1ccc3c(c1)OCO3)n2C | inactive: -3.86%
84 | Cn1c(N)c(C(=O)COC(=O)CCC(=O)c2ccc(F)cc2)c(=O)n(C)c1=O | inactive: 9.92%
85 | NC(=O)CSc1ncc(-c2ccc([N+](=O)[O-])cc2)[nH]1 | inactive: 5.85%
86 | O=C(/C(=N/N=C/c1ccc(O)c(O)c1)c1ccccc1)c1ccccc1 | inactive: -89.5%
87 | CC(C)OCCCNC(=O)Cc1ccc(Br)cc1 | inactive: 2.02%
88 | Cc1ccc(N(C(=O)c2snc(C(N)=O)c2N)C(C(=O)NC2CCCC2)c2ccco2)cc1 (configuration not stated) | inactive: -8.44%

Row | SMILES | growth rescue (activation)
89 | COc1cccc(/C=C(/C(=O)OCC(=O)NC2CCCC(C)C2C)c2ccccc2)c1 (configuration not stated) | inactive: 0.146%
90 | COc1ccccc1N1CCN(c2ncc(C(=O)N3CCN(c4cccc(Cl)c4)CC3)c3ccccc23)CC1 | inactive: -16.1%
91 | COc1ccc2c(c1)C(C)CC(C)(C)N2C(=O)NC1CCCCC1 (configuration not stated) | inactive: -13.4%
92 | CN1/C(=C\C=N\O)C(C)(C)c2ccccc21 | inactive: -6.42%
93 | CCc1ccccc1N=C1S/C(=C/c2ccccc2OCC(=O)N2CCOCC2)C(=O)N1C | inactive: 17.1%
94 | O=C(C1CCCC1)N1CCN(S(=O)(=O)c2cccc(Cl)c2Cl)CC1 | inactive: -4.95%
95 | O=C(CN1C(=O)CNC1=O)Nc1cc(Cl)cc(Cl)c1 | inactive: -16.8%
96 | Cc1[nH]c(=O)[nH]c(=O)c1S(=O)(=O)N1CCC(C(=O)N2CCN(c3cccc(C(F)(F)F)c3)CC2)CC1 | inactive: -0.756%
97 | Cc1ccc(C(=O)NC(C)CCc2ccccc2)cc1S(=O)(=O)N1CCOCC1 (configuration not stated) | inactive: 29.6%
98 | CC(C)(C)C1CCC(=NNc2nc3ccccc3[nH]2)CC1 (configuration not stated) | inactive: -1.96%
99 | Cc1cc(NC(=O)c2n[nH]c(=O)c3ccccc23)ccc1Br | inactive: 5.8%
100 | CN(CC(=O)Nc1ccc(F)c(F)c1F)C(=O)c1ccc(N2CCCC2=O)cc1 | inactive: -6.37%
101 | C=CCc1cccc(CNn2cnnc2)c1O | inactive: 10.7%
102 | Cc1ccc(/C=N/NC(=O)c2cccs2)o1 | inactive: -13%
103 | O=C(COc1cccc(Cl)c1)Nc1ccc2c(c1)CCC2 | inactive: 8.78%
104 | CCCS(=O)(=O)NC(=O)C1(C)CCCN(C(=O)c2cc3ccccc3s2)C1 (configuration not stated) | inactive: -2.46%
105 | COC(=O)c1sccc1NC(=O)c1ccc(OC)cc1OC | inactive: 11.8%
106 | O=C(CCn1nc(-c2ccc(Cl)cc2)c2ccccc2c1=O)Nc1cccnc1 | inactive: 12.5%
107 | Cc1cccc(C)c1NC(=S)N1CCC(c2ccccc2)C1 (configuration not stated) | inactive: -2.51%
